# From PMC12136788
# The list shows a part of the results.
# T1: UNK ZnF1-3 (human, UniProt Q9C0B0 31-174)
# T1 sequence: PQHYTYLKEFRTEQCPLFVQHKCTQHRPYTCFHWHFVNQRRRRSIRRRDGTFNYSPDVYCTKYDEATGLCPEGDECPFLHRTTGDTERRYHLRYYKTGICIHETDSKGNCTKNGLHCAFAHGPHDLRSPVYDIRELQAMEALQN
# B1: chr1:183098298:183098299:+_ENSMUSG00000062169_ENSMUST00000134115|mus_mus|FALSE|FALSE (ssRNA)
# RNA: GGGAGUUCUACAGUCCGACGAUCGUCUUUAUAGACAAGGCAGCUUUCUCAGUCAGUCCUCCUCUGCAGCUUAGGCCCAACAAGACAGCCCAAAGGUGCUUAGUUCCAUGGCUUUCAGUUUAAGCUCAAACAUUCUAGACAAAACAACAGAGGAUUGAGCAUCA
# B2: chr2:62099399:62099400:-_ENSG00000115484_ENST00000544079|hu_hu|motif|central (ssRNA)
# RNA: GGGAGUUCUACAGUCCGACGAUCGUAGGAUUCCAUACCACUCAGUGUUCGUGAAUAUUCAGUUAAUCGUAGGGCCAACUCGGUUUCUGGAGCACCACCUCCUGCAAUAAGAGCCCUCUUCUUCACUAAACAACGAAUAACACACAACAGAGGAUUGAGCAUCA
# B3: chr11:82972979:82972980:-_ENSG00000137500_ENST00000527495|hu_mus|FALSE|FALSE (ssRNA)
# RNA: GGGAGUUCUACAGUCCGACGAUCGCAGCAGCGGCAGCAUCAUCGUCAGUUCUCCUUCCAGAACCUAUAAAACCCCAAUGCUAUCGCCAAGCAAGUGAACACUGAGGCUGCAAGAUAACGAAUUGUUUCAAGUUUGCUCGACUCCAACAGAGGAUUGAGCAUCA
# B4: chr8:8869160:8869161:+_ENSG00000104626_ENST00000250263|hu_hu|FALSE|FALSE (ssRNA)
# RNA: GGGAGUUCUACAGUCCGACGAUCUAUUUCAUGUACAAACUCAGGUGGGUUUCCUUCUUCACAAGUGGCUUCAAAGUCAAUAAUACAAAUGUAGUCAUAAUAACUGUCAGCAAAAUUGCUCUCUUUCAGCAUCAGCUUCUGCUUCAACAGAGGAUUGAGCAUCA
# B5: chr1:174129369:174129370:-_ENSMUSG00000013698_ENSMUST00000013842|mus_mus|FALSE|FALSE (ssRNA)
# RNA: GGGAGUUCUACAGUCCGACGAUCACGGGUUCUGUAGUCAACCACCAUAGUGAGGAGGUCAGGACGGCGAGAUAUCUCAAAGAUGUGCUCAAUGUAGGAGAGGUUGUCUUUGUCCAGCUUGUUGUGGCUCUCCAGGAAGCUAAACAACAGAGGAUUGAGCAUCA
# B6: chr1:163112212:163112213:-_ENSG00000143248_ENST00000313961|hu_hu|hu_hu_hu_mus_False|58_78 (ssRNA)
# RNA: GGGAGUUCUACAGUCCGACGAUCUUUUAUUAUCAGUAAGAGUGAGUUACAUACUAGAUAAAGUAUUGGAUACAAUAUUCUAAAGAUAAACACUAUUGGUCCAGAAUUUAAAACUUUAUGAGCGAAGUGCUGGCACAGGACUUACAACAGAGGAUUGAGCAUCA
# B7: chrX:34632047:34632048:-_ENSMUSG00000036572_ENSMUST00000076265|mus_hu|FALSE|FALSE (ssRNA)
# RNA: GGGAGUUCUACAGUCCGACGAUCUAACUAUUUAAAUUUUUGUAUCAACGAAAGUGUGUUCUAUCCUUCACUGUACCUGUACUACAAGGACAUGCUUGUUGCUUCUACACUACCCAAUGUCAACACUUAUCAUCAACAAUACAACAACAGAGGAUUGAGCAUCA
# B8: chr2:187373433:187373434:+_ENSG00000065548_ENST00000337859|hu_hu|FALSE|FALSE (ssRNA)
# RNA: GGGAGUUCUACAGUCCGACGAUCUUUUCAGCGAUGUGUUUGGUGUCAUUCUUCUAAAUCAAGUGUAUUUAAUUCUUCUUCUAGUUCAUCCAAAUCCUCUCCAGUGAAAAGAUUUUCAUCAACAGGAACAGCAUCAAUGGCUCCCAACAGAGGAUUGAGCAUCA
# B9: 128792796_128792916_2876_3pUTR_ENSMUSG00000063317_ENSMUST00000046929|mouse|control|control (ssRNA)
# RNA: GGGAGUUCUACAGUCCGACGAUCUUAUUAUCAAAAGGAUCAGAGACGGGGGGCAAGUGAUCCCCUUGUGCUCGGUUUUUGCUUGGUGUGUCUACAACACUGGAGUUCAAUUUUCCAGGGUCUGAGUCAUCUUUGAACACACCUCAACAGAGGAUUGAGCAUCA
# B10: 98121652_98123399_354_3pUTR_ENSMUSG00000022987_ENSMUST00000023722|mouse|control|control (ssRNA)
# RNA: GGGAGUUCUACAGUCCGACGAUCAGUCUGUCUGCGAGGGGUCCAGGCUCCGCCACUCCUCCUGGGAUCCGGCUGCAAGAAGUGCGGCUGCCAUUUCCCAGUCUCCAGUGUUCCCCUCCUGGGGAACGGCCGGAACCCAGGGAACAACAGAGGAUUGAGCAUCA
# B11: chr2:198367945:198367946:+_ENSG00000115541_ENST00000409468|hu_mus|FALSE|FALSE (ssRNA)
# RNA: GGGAGUUCUACAGUCCGACGAUCGACACCAUUUCAACAGUGAUUUCAGUCGACAUACUUUCCAAGAAUGUCACUAUCUCUAAAUAAGAAAUAAUCCUUGUCAUCUAGAACUACUUUGGUGCCUCCAUAUUCUGGGAGAAGAACCAACAGAGGAUUGAGCAUCA
# B12: chr22:18299541:18299542:-_ENSG00000243156_ENST00000441493|hu_hu|FALSE|FALSE (ssRNA)
# RNA: GGGAGUUCUACAGUCCGACGAUCAAGGACAUCGUCGCUGGAGAGGUCUGAGUCCUCGGAGAAGCUCAGCUGGCGCCGGAGCUGCAGCUCUGCCCUUACGACGGGAAGCACCCUGUGCUUUCCAGAGUCCACCGUGGCCCCGCUCAACAGAGGAUUGAGCAUCA
# B13: chr7:140404665:140404666:+_ENSG00000090266_ENST00000247866|hu_hu|hu_hu_hu_mus_False|8_58 (ssRNA)
# RNA: GGGAGUUCUACAGUCCGACGAUCUGCUCCUACUCGUCCAGAGAGUUUACAGUGUCAGUCCUCGUCAUCAGGAGGGAUACCUAAUUCUUCAUCUGUCCACUGUGAAGGAUCUGGAUAUGAAAAGUGACCCAGCACCUCAUCCGACAACAGAGGAUUGAGCAUCA
# B14: chr15:76014475:76014476:-_ENSMUSG00000022565_ENSMUST00000071869|mus_hu|FALSE|FALSE (ssRNA)
# RNA: GGGAGUUCUACAGUCCGACGAUCGAGCUCCGGGAGGGUGGCCGGCACGGCCUGGGCCUCCUUGAGCUGCUCCUCGUGGGCCCUGAGCACCUCCUCGGCCCCCUGCGUGCCGCGGAUCACCAGGCUGAUGGUCUUGAGCUUCUCCAACAGAGGAUUGAGCAUCA
# B15: chr1:58468927:58468928:-_ENSMUSG00000026034_ENSMUST00000148330|mus_mus|mus_mus_mus_hu_False|78_88 (ssRNA)
# RNA: GGGAGUUCUACAGUCCGACGAUCAAUUACUGAAAAAGAUGUUCAUUUAUUUGGUUUGGCCAUGUAUGAACCAAAUUACCCAAACAAAAUAAACAUGGCAAUAUAAAAAUGUUAAGAAUUUACAAAGCUGUACAAAAUAACUUACAACAGAGGAUUGAGCAUCA
# B16: chr14:78183846:78183847:+_ENSG00000119705_ENST00000557342|hu_hu|hu_hu_hu_mus_False|1_78 (ssRNA)
# RNA: GGGAGUUCUACAGUCCGACGAUCUCUCAGAAAUCUUUCUUCAUCAGAUGUUUGAGCUGUUUGCGGAGCCUUUGCUCUUUGAGCUUGAACGUGGAUCUAUGGGAGGGAAAGCACUGUCAGAAAAGGUAAUUUUUUUUUCCGAAGCAACAGAGGAUUGAGCAUCA
# B17: chr13:111857651:111857652:+_ENSG00000102606_ENST00000375736|hu_hu|FALSE|FALSE (ssRNA)
# RNA: GGGAGUUCUACAGUCCGACGAUCGCACACACGGAGUCACUCCCCAGCCCGAUGUCUGCUGUUACUUUAUUUAGAGUCACUAAGGAACUGAGGACCUUGUUAAAAUUCUGCCCCUGAUACAAAUCAUUUGCAUCAAACGUCUCCCAACAGAGGAUUGAGCAUCA
# B18: chr7:63234579:63234580:-_ENSMUSG00000047037_ENSMUST00000052204|mus_hu|FALSE|FALSE (ssRNA)
# RNA: GGGAGUUCUACAGUCCGACGAUCCGUUUGGGCUGCAGAGGGCUGGCUGGGCCUCUGCUCUGGUGCUGAGCCAUGCUCCCCGCUAUCCACCAGACCACCUGUUACUAUCCAGUCAAUUCUAACACCAUGAUCGAGGACCUCUUCCAACAGAGGAUUGAGCAUCA
# B19: chr1:163112212:163112213:-_ENSG00000143248_ENST00000313961|hu_hu|hu_hu_hu_mus_False|38_48 (ssRNA)
# RNA: GGGAGUUCUACAGUCCGACGAUCUUUUAUUAUCAGUAAGAGUGAGUUACAUACUAGGCAAAGUAUUGGAUACAAUAAUCAGGAAACAAACACAAUUUUUCUUGAAUUUAAAACUUUAUGAGCGAAGUGCUGGCACAGGACUUACAACAGAGGAUUGAGCAUCA
# B20: chr5:31101443:31101444:+_ENSMUSG00000029168_ENSMUST00000114729|mus_hu|motif|central (ssRNA)
# RNA: GGGAGUUCUACAGUCCGACGAUCGUGGCUUCUGGGUCAGUAUCAGAAAAGCCCUCAUCACGACAUCGGCUUGACAGAGACCGGCUGUGGACUCCUAGCACUACACACACGCACGCACACGCACACACAGUAGCACAAUUUUCUCAACAGAGGAUUGAGCAUCA
# B21: chr2:217002811:217002812:+_ENSG00000079246_ENST00000392132|hu_hu|motif|central (ssRNA)
# RNA: GGGAGUUCUACAGUCCGACGAUCCAAGGAUGAAAACAUGUAUUGCCGCAAGUCUUCCAUGAAAGGCAGCUGCACAUACACGGAACACUCAUAGUUAUGCUUGAUAUGAGGAAAAGCCACGCCGACUUGAGGAUUAGCUCUUUUCAACAGAGGAUUGAGCAUCA
# B22: chr5:54390236:54390237:+_ENSMUSG00000039156_ENSMUST00000071083|mus_mus|FALSE|FALSE (ssRNA)
# RNA: GGGAGUUCUACAGUCCGACGAUCACUCAGCGACAUACAGGGAUCUGUCAGCAGCGCCUGGCGCUCGCCCGCAGCCGCAGCCGAAGGAGACGCCGCCGCUCCGGCCGAUCCCGACGCGCGCCGCCCGCGGAGGUGCCGGGGCACCAACAGAGGAUUGAGCAUCA
# Target: T1, UNK ZnF1-3
# Assay: nsRBNS (natural sequence RNA bind-n-seq); RBNS binding buffer (assumed for nsRBNS): 25 mM Tris pH 7.5, 150 mM KCl, 3 mM MgCl2, 0.01% Triton X-100, 500 ug/ml BSA, 20 U/ml SUPERase-In, 4 C; UNK is unkempt and MSI1 is Musashi-1; names of the RNAs are library labels; protein concentration not given here; high values mean tight binding
row,Binder,binding signal [enrichment R]
1,B1,1.21
2,B2,1.34
3,B3,1.04
4,B4,1.09
5,B5,1.09
6,B6,1.08
7,B7,1.16
8,B8,1.37
9,B9,0.823
10,B10,0.32
11,B11,0.978
12,B12,0.707
13,B13,1.05
14,B14,1.06
15,B15,1.15
16,B16,1.3
17,B17,1.17
18,B18,0.728
19,B19,1.37
20,B20,1.24
21,B21,0.479
22,B22,0.683
